These are yes or no findings as the source states them, for the method shown. In cells and extracts the contact can be indirect. Some results given as binding are weak or reduced against the parent protein; the word gives no strength. Each block holds one binder with its values, some of them ahead of it.
Columns and labels:
[1] = target: T1, TRAF3 (mouse (endogenous in BM-pDCs)) (UniProt Q60803); assay: co-IP; WT or Arl8b Gt/Gt BM-pDCs, unstimulated or stimulated with 25 μg/mL polyU, immunoprecipitation with Ab against TRAF3 or rabbit IgG control; immunoblot
T1 sequence: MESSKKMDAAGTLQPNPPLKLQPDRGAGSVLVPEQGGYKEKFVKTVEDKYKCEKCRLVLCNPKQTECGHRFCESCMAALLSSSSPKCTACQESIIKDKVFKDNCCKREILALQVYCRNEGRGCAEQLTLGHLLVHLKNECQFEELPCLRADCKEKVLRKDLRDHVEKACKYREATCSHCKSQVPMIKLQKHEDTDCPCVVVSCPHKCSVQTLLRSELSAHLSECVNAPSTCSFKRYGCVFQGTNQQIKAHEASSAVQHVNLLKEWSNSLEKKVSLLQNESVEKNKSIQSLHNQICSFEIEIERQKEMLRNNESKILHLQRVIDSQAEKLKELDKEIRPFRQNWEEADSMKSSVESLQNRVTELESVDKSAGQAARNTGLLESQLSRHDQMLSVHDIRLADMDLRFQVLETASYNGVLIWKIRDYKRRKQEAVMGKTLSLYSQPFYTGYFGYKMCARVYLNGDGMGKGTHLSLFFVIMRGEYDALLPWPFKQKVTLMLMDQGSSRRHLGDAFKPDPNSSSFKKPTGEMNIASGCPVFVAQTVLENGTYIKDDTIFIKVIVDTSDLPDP

[2] = target: T2, TNF receptor-associated factor 6 (TRAF6) (mouse (endogenous in BM-pDCs)) (UniProt P70196); assay: co-IP; WT BM-pDCs stimulated with 25 μg/mL polyU for the indicated times, lysed, immunoprecipitation with Ab against TRAF6 or goat IgG control; immunoblot
T2 sequence: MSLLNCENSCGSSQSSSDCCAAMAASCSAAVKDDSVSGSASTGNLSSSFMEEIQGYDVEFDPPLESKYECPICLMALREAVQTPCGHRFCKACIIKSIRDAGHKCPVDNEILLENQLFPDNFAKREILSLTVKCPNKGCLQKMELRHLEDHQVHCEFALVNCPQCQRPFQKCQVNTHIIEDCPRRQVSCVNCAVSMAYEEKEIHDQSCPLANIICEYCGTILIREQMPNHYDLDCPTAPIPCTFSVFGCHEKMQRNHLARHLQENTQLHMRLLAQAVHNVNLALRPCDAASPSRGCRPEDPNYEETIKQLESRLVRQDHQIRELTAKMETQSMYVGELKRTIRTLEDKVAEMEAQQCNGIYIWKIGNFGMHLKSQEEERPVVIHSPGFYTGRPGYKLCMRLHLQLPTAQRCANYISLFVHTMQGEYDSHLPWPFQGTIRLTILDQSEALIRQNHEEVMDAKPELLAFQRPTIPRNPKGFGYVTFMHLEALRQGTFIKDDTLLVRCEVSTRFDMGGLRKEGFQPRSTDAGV

[3] = target: T2, TNF receptor-associated factor 6 (TRAF6) (mouse (endogenous in BM-pDCs)); assay: co-IP; Arl8b Gt/Gt BM-pDCs stimulated with 25 μg/mL polyU for the indicated times, lysed, immunoprecipitation with Ab against TRAF6 or goat IgG control; immunoblot

B1: IKKα (enzyme, UniProt Q60680 1-745)
chain: MERPPGLRPGAGGPWEMRERLGTGGFGNVSLYQHRELDLKIAIKSCRLELSSKNRERWCHEIQIMKKLDHANVVKACDVPEELNFLINDVPLLAMEYCSGGDLRKLLNKPENCCGLKESQILSLLSDIGSGIRYLHENKIIHRDLKPENIVLQDVGGKTIHKIIDLGYAKDVDQGSLCTSFVGTLQYLAPELFENKPYTATVDYWSFGTMVFECIAGYRPFLHHLQPFTWHEKIKKKDPKCIFACEEMTGEVRFSSHLPQPNSLCSLIVEPMESWLQLMLNWDPQQRGGPIDLTLKQPRCFALMDHILNLKIVHILNMTSAKIISFLLPCDESLHSLQSRIERETGINTGSQELLSETGISLDPRKPASQCVLDGVRGCDSYMVYLFDKSKTVYEGPFASRSLSDCVNYIVQDSKIQLPIIQLRKVWAEAVHYVSGLKEDYSRLFQGQRAAMLSLLRYNANLTKMKNTLISASQQLKAKLEFFRKSIQLDLERYSEQMTYGISSEKMLKAWKEMEEKAIHYSEVGVIGYLEDQIMSLHTEIMELQKSPYGRRQGDLMESLEQRAIDLYKQLKHRPPDHLYSDSTEMVKIIVHTVQSQDRVLKELFGHLSKLLGCKQKIIDLLPKVEVALSNIKEADNTVMFMQGKRQKEIWHLLKIACTQSSARSLVGSSLEGTVTPPVSAWLPPTLADREHPLTCVVTPQDGETLAQMIEENLNCLGHLSTIIREANEDQSSSLMSLDWSWLAE
- binding [1]: binds

- binding [2]: binds
B2: interferon regulatory factor 7 (IRF7) (protein, UniProt P70434 1-457)
chain: MAEVRGVQRVLFGDWLLGEVSSGQYEGLQWLNEARTVFRVPWKHFGRRDLDEEDAQIFKAWAVARGRWPPSGVNLPPPEAEAAERRERRGWKTNFRCALHSTGRFILRQDNSGDPVDPHKVYELSRELGSTVGPATENREEVSLSNALPTQGVSPGSFLARENAGLQTPSPLLSSDAGDLLLQVLQYSHILESESGADPVPPQAPGQEQDRVYEEPYAAWQVEAVPSPRPQQPALTERSLGFLDVTIMYKGRTVLQAVVGHPRCVFLYSPMAPAVRTSEPQPVIFPSPAELPDQKQLHYTETLLQHVSPGLQLELRGPSLWALRMGKCKVYWEVGSPMGTTGPSTPPQLLERNRHTPIFDFSTFFRELEEFRARRRQGSPHYTIYLGFGQDLSAGRPKEKTLILVKLEPWVCKAYLEGVQREGVSSLDSSSLGLCLSSTNSLYEDIEHFLMDLGQWP
- binding [3]: no binding (condition: in Arl8b Gt/Gt pDCs)
